Experimental data reported in PubChem BioAssay AID624417 (National Center for Advancing Translational Sciences (NCATS), 2012).
Out of some 410,000 compounds screened, about 6,400 (1.6%) were called active. Inconclusive results, whose numbers are uncertain, are shown with a selection of clear calls. Calls follow the shape of the dose curve; as a rule, active = well fitted inhibition curve with a large enough effect; inconclusive = small, poorly fitted or top-dose-only effect; inactive = no such curve, though single readings can be large or run the other way. Where the call is inconclusive, the potency comes from a doubtful curve fit.

These compounds were tested against Glucagon-like peptide 1 receptor (Homo sapiens) (UniProt P43220) (assay: qHTS of GLP-1 Receptor Inverse Agonists (Inhibition Mode)). Details: HEK293 GLP-1R CRE-luciferase, luminescence, 24 h, GLP-1R form is constitutively active; activity change, negative = inhibition: at 38.3 µM (top of the series) unless noted.
Summary of the method: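 HEK293 cells stably co-expressing a cAMP-responsive luciferase reporter and constitutively active GLP-1R were seeded, incubated 12 h, then exposed to compounds for 24 h at 37 C. Luminescence was read 12 min after detection reagent; inverse agonists lower signal.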
% is scaled to controls: 0 for no effect and ±100 for the full control effect; potency is read from the fitted curve at half-maximal effect; tags tell the direction and shape of the fitted curve.
Also: nearly all actives have a fitted effect of over 55% in size.

UniProt P43220, sequence (P43220 whole entry, looked up): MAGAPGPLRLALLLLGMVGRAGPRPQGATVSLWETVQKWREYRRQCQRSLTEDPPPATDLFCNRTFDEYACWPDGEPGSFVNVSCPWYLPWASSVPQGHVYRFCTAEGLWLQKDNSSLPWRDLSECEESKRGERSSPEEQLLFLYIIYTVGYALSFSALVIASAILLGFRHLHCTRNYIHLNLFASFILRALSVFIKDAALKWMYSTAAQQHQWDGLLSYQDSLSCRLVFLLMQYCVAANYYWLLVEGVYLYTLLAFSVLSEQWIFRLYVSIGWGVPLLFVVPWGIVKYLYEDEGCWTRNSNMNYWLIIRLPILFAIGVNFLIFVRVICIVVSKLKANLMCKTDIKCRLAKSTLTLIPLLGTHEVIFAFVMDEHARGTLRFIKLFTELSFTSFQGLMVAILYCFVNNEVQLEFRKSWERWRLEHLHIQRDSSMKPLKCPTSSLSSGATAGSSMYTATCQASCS

Potency, inconclusive:
O=S(=O)(NCC(c1ccccc1)N1CCc2ccccc21)c1ccc(Cl)cc1 (centres undefined) 12.6 µM [inhibitor, single point], O=C(CCCC(=O)N(c1ccc2c(c1)OCCO2)C(C(=O)NC1CCCCC1)c1ccc(Cl)cc1)Nc1ccccn1 (centres undefined) 25.1 µM [inhibitor, single point], COc1ccc(-c2ccc(C(=O)Nc3cccc(NS(C)(=O)=O)c3)c3occc23)c(C)c1 12.6 µM [inhibitor, single point], Cc1onc(-c2c(Cl)cccc2Cl)c1C(=O)N1CCSCC1 8.91 µM [inhibitor, partial curve, poor fit], O=C(/C=C/c1cc2ccccc2o1)c1ccccc1O 28.2 µM [inhibitor, single point], Cc1ccc(OCCn2c(C3CC(=O)N(Cc4ccc(F)cc4)C3)nc3ccccc32)c(C)c1 (centres undefined) 11.2 µM [inhibitor, single point], Cc1cc(C([O-])=C(C(=S)Nc2ccc(F)cc2)[n+]2ccccc2)c(C)n1-c1ccc(F)cc1 10 µM [inhibitor, partial curve], CCOc1cc(C(=O)OCc2ccc(C(=O)OC)o2)cc(Br)c1OC 28.2 µM [inhibitor, single point], CCOC(=O)C1=C(C)NC2=C(C(=O)C(C(=O)OCC)C(c3cccc(OC)c3)C2)C1c1ccccn1 (centres undefined) 28.2 µM [inhibitor, single point], Cc1ccc2c(CN3CCCCC3C)cc(=O)oc2c1C (centres undefined) 11.2 µM [inhibitor, partial curve, poor fit], Cc1cc(Nc2cccc(Cl)c2)nc(N2CCOCC2)n1 11.2 µM [inhibitor, single point], COc1ccc(N2CCN(C(=O)COc3ccc(Cl)cc3Cl)CC2)cc1 10 µM [inhibitor, partial curve, poor fit], CC(C)Cc1ccc(CN2CCCC(NC(=O)CCN3CCCCC3=O)C2)cc1 (centres undefined) 11.2 µM [inhibitor, partial curve, poor fit], COc1cccc(C(=O)Nc2nnc(S(=O)(=O)N3CCCc4ccccc43)s2)c1 22.4 µM [inhibitor, single point], COc1cccc(C(=O)CSc2nnc(CNc3nc(-c4ccccc4)cs3)n2C)c1 12.6 µM [inhibitor, single point], CCOC(=O)c1cc(-c2ccc(C)cc2)n(CCC(=O)NCCCOC)c1C 5.01 µM [inhibitor, partial curve], O=C1CC(c2ccc(Cl)c([N+](=O)[O-])c2)c2ccc3ccccc3c2N1 (centres undefined) 11.2 µM [inhibitor, partial curve, poor fit], Cc1cccc(NC(=S)N2CCC(c3nc4ccccc4o3)CC2)c1 10 µM [inhibitor, partial curve, poor fit], CC(=O)C[C@H]1c2cc(C(F)(F)F)ccc2S(=O)(=O)N1C1CCCC1 31.6 µM [inhibitor, partial curve, poor fit], CC(C)N1CCN(Cc2ccc(-c3ccccc3Cl)o2)CC1CCO (centres undefined) 12.6 µM [inhibitor, partial curve, poor fit], Cc1ccc(C)c(Nc2nn3c(=O)c4ccc(C(=O)NCc5ccccc5)cc4nc3s2)c1 7.08 µM [inhibitor, partial curve, poor fit], O=C(CN1C(=O)COc2ccc(S(=O)(=O)N3CCCCCC3)cc21)N1CCN(c2ccc(Cl)cc2)CC1 7.08 µM [inhibitor, partial curve, poor fit], CCOC(=O)C(C)n1nc(/C=C/c2ccccc2)ccc1=O (centres undefined) 17.8 µM [inhibitor, partial curve, poor fit], CCN(CC)CCNC(=O)c1cc2c(=O)n(C)c3ccccc3c2s1 11.2 µM [inhibitor, partial curve, poor fit], COc1ccc(CCNC(=O)C(=O)NCc2ccccc2)cc1OC 3.98 µM [inhibitor, partial curve, poor fit], COc1ccc(-c2cc(-c3nc(-c4cc(OC)c(OC)c(OC)c4)no3)[nH]n2)c(OC)c1 2.82 µM [inhibitor, partial curve, poor fit], CCOc1ccc(S(=O)(=O)N(CC(=O)NC2CCCC2)c2ccc(F)cc2)cc1 14.1 µM [inhibitor, single point], O=C(NCCCN1CCN(c2ccccc2F)CC1)c1ccc2nc(CCc3ccccc3)oc2c1 10 µM [inhibitor, single point], Cc1ccc(C(=O)NCc2ccc(Cl)c(Cl)c2)o1 28.2 µM [inhibitor, single point], FC(F)(F)c1ccccc1Cc1c(C2CCCCC2)nc2ccc(Cl)cn12 31.6 µM [inhibitor, single point], CCN(CC)C(=O)c1ccc(C(=O)c2c(C)cc(C)cc2C)cc1 8.91 µM [inhibitor, partial curve, poor fit], CCC(C)(C)C1CCC2(CC1)NC(=O)N(CC(=O)NCCCc1ccccc1)C2=O (centres undefined) 0.794 µM [inhibitor, full curve, poor fit], CCN(CC)c1ccc(S(=O)(=O)N2CCOCC2)cc1NC(=O)CNCc1cccc(Cl)c1 14.1 µM [inhibitor, single point], COc1ccc(S(=O)(=O)n2nc(-c3ccco3)nc2NCc2ccc(C(C)C)cc2)cc1 11.2 µM [inhibitor, partial curve, poor fit], N#C/C(=C\c1ccc(N2CCOCC2)o1)c1nc2ccccc2[nH]1 8.91 µM [inhibitor, single point], CCCCCCCCN1C(=O)N(C)C(N(O)C(=O)NC)C1(C)C (centres undefined) 7.08 µM [inhibitor, partial curve, poor fit], COc1cccc(OC)c1CN1CCCC(C(=O)c2ccccc2SC)C1 (centres undefined) 14.1 µM [inhibitor, single point], CC(C1CC2CCC1C2)N1CC(O)=C(c2nc3ccccc3[nH]2)C1=N (centres undefined) 28.2 µM [inhibitor, single point], CCOC(=O)c1cc(-c2ccc(F)cc2)n(CCC(=O)NC2CCC(C)CC2)c1C (centres undefined) 31.6 µM [inhibitor, partial curve, poor fit], CNC(=S)N1N=C(c2ccc(OC)cc2)CC1c1ccc(N(C)C)cc1 (centres undefined) 10 µM [inhibitor, single point], COc1ccccc1N(CC(O)CN1C(C)CCCC1C)S(=O)(=O)c1ccccc1 (centres undefined) 6.31 µM [inhibitor, partial curve, poor fit], O=C(NNc1c2ccccc2nc2ccccc12)c1cc2ccccc2cc1O 3.55 µM [inhibitor, full curve, poor fit], O=S(=O)(NC1CC(NS(=O)(=O)OCC(Cl)(Cl)Cl)C2CCCCC12)OCC(Cl)(Cl)Cl (centres undefined) 11.2 µM [inhibitor, partial curve, poor fit], Cc1ccc(-c2nnc(N3CC(C)OC(C)C3)c3ccccc23)cc1 (centres undefined) 10 µM [inhibitor, partial curve, poor fit], O=Cc1cc(Cl)ccc1OCCN1CCC(Cc2ccccc2)CC1 17.8 µM [inhibitor, partial curve, poor fit], OCCCNc1cc(-c2ccnc(Nc3cccc(Cl)c3)n2)ccn1 0.316 µM [inhibitor, full curve, poor fit]

Potency, active:
Cc1cccc(N(Cc2cc(=O)[nH]c3ccccc23)C(=O)CCl)c1 2.51 µM

Activity change, negative = inhibition, inactive:
COc1c[nH]n(C2CCCCC2)c(=O)c1=O -2.09%, Cc1cccc(C(=O)NC(=S)NNC(=O)Cc2ccccc2)c1 1.14%, Cc1noc(C)c1S(=O)(=O)N1CCCC(C(=O)NCc2ccccc2Cl)C1 (centres undefined) 17.3%, COc1ccc(C2C(C(=O)c3cccs3)=C(O)C(=O)N2c2nncs2)cc1 (centres undefined) 0.151%, COC(=O)c1nnn(-c2nc(N(C)C)nc(N(C)C)n2)c1C 12.2%, Cc1cc(C)n2nc(SCC(=O)N3CCc4ccccc43)nc2n1 26.7%, O=S(=O)(Nc1ccc2ccccc2c1)c1ccccc1 -16.7%, Cc1nc2ccccc2n1Cc1ccc(Cl)cc1 -24.4%, COc1ccc(S(=O)(=O)NCc2cccn2Cc2cc(C)ccc2C)cc1OC -23.3%, CCc1nnc2c3ccccc3nc(Nc3cc(C)cc(C)c3)n12 13.4%, N#CC(c1cccc(C(F)(F)F)c1)(c1ncc(C(F)(F)F)cc1Cl)N1CCOCC1 (centres undefined) -0.613%, Cc1nn2c3c(cnc2c1-c1ccc(Cl)cc1)C(=O)CC(c1ccco1)C3 (centres undefined) 0.157%, CC1=C(C(=O)N2CCCCCC2)CC(CC(=O)NCC2CCCCC2)C(=O)N1Cc1ccccc1 (centres undefined) -7.08%, COc1ccccc1NS(=O)(=O)c1cccc(C(=O)N/N=C/c2ccc3c(c2)OCCO3)c1 -4.29%, CCN1CCN(C2=CC3=CC(=C(C#N)C#N)CCC3CC2)CC1 (centres undefined) 1.05%, CC(NC(=O)c1ccccc1NS(=O)(=O)c1ccc(CCC(=O)O)cc1)c1ccccc1 (centres undefined) -1.7%, Fc1ccc(-c2cc(-c3ccc(F)cc3)c3c(n2)-c2cc(F)ccc2OC3)cc1 11.4%
